This note sets out measurements from paper PMC9699427 (Viruses, 2022).

Usually EC50 stands for the midpoint of the concentration-response curve.

One experiment deals with pNL4-3GP41(36G)V38A,N42T. The note with it: read-out: EC50 (Mean ± SD); pNL4-3GP41(36G)V38A,N42T (FI-resistant), C8166, p24.
Another experiment has as its system HIV-1IIIB. As to the kind of experiment: microbe, parasite or virus in culture. The note with it: Human immunodeficiency virus 1, C8166, read-out: EC50 (Mean ± SD).
In the next experiment the test system is HIV-1_4755-5. In words: microbe, parasite or virus in culture. As to conditions: Human immunodeficiency virus 1, C8166, read-out: EC50 (Mean ± SD).
A further experiment relates to HIV-1A17. In words: microbe, parasite or virus in culture. As to conditions: Human immunodeficiency virus 1, C8166, read-out: EC50 (Mean ± SD).
The next experiment concerns HIV-1RF/V82F/184V. As to the kind of experiment: microbe, parasite or virus in culture. As to conditions: Human immunodeficiency virus 1, C8166, read-out: EC50 (Mean ± SD).
The subject of another experiment is HIV-1TC-1. As to the kind of experiment: microbe, parasite or virus in culture. As to conditions: Human immunodeficiency virus 1, PBMC, read-out: EC50 (Mean ± SD).
A further experiment concerns HIV-1KIZ001. As to the kind of experiment: microbe, parasite or virus in culture. The note with it: Human immunodeficiency virus 1, PBMC, read-out: EC50 (Mean ± SD).
In a further experiment the test system is HIV-1WAN. As to the kind of experiment: microbe, parasite or virus in culture. The note with it: Human immunodeficiency virus 1, PBMC, read-out: EC50 (Mean ± SD).

Consider `Cc1cc(C#N)cc(C)c1Oc1nc(NC2CCN(Cc3ccc(S(N)(=O)=O)cc3)CC2)nc2ccsc12` [K-5a2], for which the concentration for a half-maximal effect (EC50) in the experiment with pNL4-3GP41(36G)V38A,N42T came to 2.55 ± 1.44 nM; in the experiment with HIV-1IIIB, 6.11 ± 0.57 nM; in the experiment on HIV-1_4755-5, 6.92 ± 7.47 nM; in the experiment with HIV-1A17, 195 ± 78.7 nM; in the experiment with HIV-1RF/V82F/184V, 3.87 ± 0.98 nM; with HIV-1TC-1, 2.25 ± 0.87 nM. Further, the EC50 stood at 2.16 ± 0.24 nM with HIV-1KIZ001 and 5.56 ± 2.16 nM in the experiment with HIV-1WAN.

On to `Cc1cc(C#N)cc(C)c1Oc1nc(Nc2ccc(C#N)cc2)nc(N)c1Br` [ETR, etravirine, reference compound], for which the half-maximal effective concentration (EC50) with pNL4-3GP41(36G)V38A,N42T was under 0.13 nM; in the experiment with HIV-1IIIB, 5.71 ± 1.31 nM; in the experiment with HIV-1_4755-5, 3.72 ± 4.37 nM; in the experiment with HIV-1A17 it was 25.9 ± 17.7 nM; with HIV-1RF/V82F/184V, 0.21 ± 0.05 nM; in the experiment on HIV-1TC-1, 2.27 ± 0.95 nM. Moreover, the figures for the half-maximal effective concentration (EC50) with HIV-1KIZ001 and in the experiment on HIV-1WAN were 3.58 ± 0.62 nM and 4.58 ± 0.89 nM, respectively.
